# The campaign covered roughly 410,000 compounds. About 5,000 (1.2%) were called active. This list was built around the results that the source calls inconclusive (neither active nor inactive); the mix of calls is not that of the screen. Calls follow the shape of the dose curve; as a rule, active = well fitted inhibition curve with a large enough effect; inconclusive = small, poorly fitted or top-dose-only effect; inactive = no such curve, though single readings can be large or run the other way. Potencies of inconclusive entries are doubtful fits and often do not repeat.
# Test: qHTS for Inhibitors of TGF-b; also: nearly all actives have a fitted effect of over 65% in size
# Conditions: HepG2 CAGA-GFP TGF-b/SMAD3 reporter, GFP fluorescence, 18 h, TGF-beta stimulated, 500 pg/mL final; series mostly up to 46.1 µM; activity, negative = inhibition: at the top concentration
# How it was run: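 Inhibition of TGF-beta-driven CAGA-GFP reporter expression in HEPG2 cells is measured by cellular GFP fluorescence after 18 h stimulation with 500 pg/mL recombinant TGF-beta in 1% FBS medium at 37 degrees C.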
# % is scaled to controls: 0 for no effect and ±100 for the full control effect; potency is read from the fitted curve at half-maximal effect; tags tell the direction and shape of the fitted curve.
SMILES,"activity, negative = inhibition",Potency
O=[N+]([O-])c1ccc(Cl)c(/C=N/n2c(-c3ccncc3)n[nH]c2=S)c1,inactive: 0%,–
Cc1ccc(-c2nc(CS(=O)(=O)CC(=O)NCc3ccc4c(c3)OCO4)c(C)o2)cc1,–,"inconclusive: 7.08 µM [inhibitor, partial curve, poor fit]"
CCc1ccc(OCC(=O)OCC(=O)NC2CCCC(C)C2C)cc1 (stereo unspecified),–,"inconclusive: 31.6 µM [inhibitor, single point]"
Cc1cc(-c2ccc(S(=O)(=O)Nc3ccc(Cl)cc3C)cc2)on1,–,active: 12.6 µM
CCOc1ccc(NC(=O)CSC2=NCCN2)cc1,inactive: 3.91%,–
Cc1ccccc1N1CCN(C(=O)C2CCC(=O)N(C3CCCC3)C2)CC1 (stereo unspecified),inactive: -7.37%,–
Cc1cc(OCC(=O)NC2CCN(Cc3ccccc3)CC2)c2c(C)c(C)c(=O)oc2c1,inactive: 15.4%,–
O=C(Nc1ccc(Br)cc1)c1cccc(N2C(=O)C3C4C=CC(C4)C3C2=O)c1 (stereo unspecified),–,"inconclusive: 35.5 µM [inhibitor, single point]"
c1ccc2c(Nc3ccc4c(c3)OCCO4)c3c(nc2c1)CCCC3,–,"inconclusive: 35.5 µM [inhibitor, single point]"
CC1(C)CC2(CC(c3ccccc3F)c3ccc(O)c(O)c3O2)NC(=S)N1 (stereo unspecified),–,"inconclusive: 35.5 µM [inhibitor, single point]"
O=C(Nc1nccs1)c1cccc(S(=O)(=O)N2CCOCC2)c1,–,"inconclusive: 35.5 µM [inhibitor, single point]"
COc1ccc(C(=O)NC2(C(F)(F)F)NC(=O)N(CCCc3ccccc3)C2=O)c(OC)c1OC (stereo unspecified),–,"inconclusive: 10 µM [inhibitor, partial curve, poor fit]"
O=C1Nc2cccc3c2N(CCC3)C2=C1CCC2,–,"inconclusive: 35.5 µM [inhibitor, single point]"
Cc1ccc(-c2noc(CSc3nnc(Cc4cccs4)n3-c3ccccc3)n2)cc1,–,"inconclusive: 10 µM [inhibitor, partial curve, poor fit]"
O=S(=O)(Nc1nc2ccccc2nc1N1CCN(c2ccccc2)CC1)c1ccc(F)cc1,–,"inconclusive: 35.5 µM [inhibitor, single point]"
CCOc1ccc(NC(=O)c2ccc(F)c(S(=O)(=O)N3CCN(c4ccccn4)CC3)c2)cc1,–,"inconclusive: 8.91 µM [inhibitor, partial curve, poor fit]"
CCOc1ccccc1OCCCC(=O)NNC(=O)c1cc(C)oc1C,inactive: -1.01%,–
Cc1ccc(S(=O)(=O)N2C[C@H]3N(C(=O)OC(C)C)N(C(=O)OC(C)C)C[C@H](OC(=O)NC4CCCC4)[C@@]3(O)C2)cc1,–,"inconclusive: 7.08 µM [inhibitor, partial curve]"
O=C(C1CCC(CNc2nc(=S)[nH]c3ccccc23)CC1)N1CCN(c2ccccn2)CC1 (stereo unspecified),–,"inconclusive: 35.5 µM [inhibitor, partial curve, poor fit]"
CCCC[C@@H]1C=C(C(=O)O)[C@H](c2ccc(Cl)c(Cl)c2)N1S(=O)(=O)c1ccc(C)cc1,–,"inconclusive: 17.8 µM [inhibitor, single point]"
COc1ccc(NC(=O)c2cnc(N3CCCCC3)c3ccccc23)cc1Cl,–,"inconclusive: 2.82 µM [inhibitor, full curve, poor fit]"
CCCCC1CCC(C(=O)N2CC(=O)Nc3ccc(Cl)cc3C2c2ccc(F)cc2)CC1 (stereo unspecified),–,"inconclusive: 10 µM [inhibitor, partial curve, poor fit]"

SMILES,"activity, negative = inhibition",Potency
COC(=O)c1ccc(C23CC4(C2)[C@H](CN(Cc2cccnc2)[C@@H]4c2ccccc2)C3c2ccc(Cl)nc2)cc1 (stereo partly specified),–,"inconclusive: 12.6 µM [inhibitor, single point]"
c1ccc(CCN2CCN=C2Nc2ccccc2)cc1,inactive: -25.7%,–
NCC(c1ccc(Cl)cc1Cl)c1c[nH]c2ccccc12 (stereo unspecified),–,"inconclusive: 35.5 µM [inhibitor, single point]"
CC[C@@H](CCC=C(C)C)C(=O)N(Cc1ccccc1)c1ccccc1,–,"inconclusive: 20 µM [inhibitor, single point]"
CC(C)NS(=O)(=O)c1ccc(NC(=O)NC2CCCCC2)cc1,–,"inconclusive: 5.01 µM [inhibitor, single point]"
C/C(=N\NC(=O)Cc1ccc(Cl)cc1)c1ccccc1O,–,"inconclusive: 15.8 µM [inhibitor, single point]"
CCC(Oc1ccc(Br)cc1Cl)C(=O)Nc1nnc(C2CC2)s1 (stereo unspecified),–,"inconclusive: 17.8 µM [inhibitor, single point]"
c1ccc2c(c1)OCCOCCOCCOCCOc1ccccc1OCCOCCOCCO2,–,"inconclusive: 7.94 µM [inhibitor, partial curve, poor fit]"
CC1Cc2cc(S(=O)(=O)NCc3ccc(N(C)C)cc3)ccc2N1C(=O)C1CCC1 (stereo unspecified),–,"inconclusive: 20 µM [inhibitor, single point]"
CC(C)(C)NC(=O)CN(C(=O)Cn1nnc(-c2ccc(Cl)cc2)n1)C1CCN(Cc2ccccc2)CC1,–,active: 15.8 µM
COc1ccc(N2CC(NC(=O)COc3ccc4ccccc4c3)CC2=O)cc1OC (stereo unspecified),inactive: 5.78%,–
O=C(c1cc(-c2ccncc2)nc2ccccc12)N1CCN(S(=O)(=O)/C=C/c2ccccc2)CC1,–,"inconclusive: 20 µM [inhibitor, single point]"
O=C(O)c1ccc(/C=C2\COc3ccccc3C2=O)cc1,–,active: 14.1 µM
Cc1ccc(C)c(CNC(=O)c2cc3ccccn3n2)c1,–,"inconclusive: 3.55 µM [inhibitor, partial curve, poor fit]"
CCc1c(O)nc(SCC(=O)Nc2ccccc2)n(-c2ccccc2C)c1=O,inactive: -1.57%,–
Cc1cc(OCC(=O)N2CCc3ccccc3C2)c(C)cc1Br,–,"inconclusive: 35.5 µM [inhibitor, single point]"
COc1cc(/C=C/CN2CCC(C(=O)NC(c3ccc(F)cc3)c3ccc4ccccc4n3)CC2)ccc1OC(C)=O (stereo unspecified),–,"inconclusive: 22.4 µM [inhibitor, single point]"
CC(=O)c1c(C)[nH]c(C(=O)N2CCN(C(=O)c3ccco3)CC2)c1C,inactive: -8.23%,–
Cc1ccc(OCCCSc2nc(-c3ccc(C(C)(C)C)cc3)nc3cc(=O)[nH]n23)cc1C,–,"inconclusive: 17.8 µM [inhibitor, single point]"
Cc1cc(F)ccc1S(=O)(=O)Nc1ccc(C(=O)N2CCCCCC2)cc1,–,"inconclusive: 35.5 µM [inhibitor, single point]"
CC1(C)CC(=O)N(CC(=O)NCc2ccc(F)cc2)c2ccccc2S1(=O)=O,inactive: 15%,–
Cc1ccc(NC(=O)C2CCN(c3nnc(C)c4c(C)n(-c5ccccc5)nc34)CC2)cc1Cl,–,"inconclusive: 2 µM [inhibitor, full curve, poor fit]"

SMILES,"activity, negative = inhibition",Potency
Cc1oc2ccc(O)c(CN3CCOCC3)c2c1C(=O)Nc1cccc(Cl)c1C,–,"inconclusive: 6.31 µM [inhibitor, single point]"
COc1ccc(C=C2C(=O)OC(C)(C)OC2=O)cc1OC,inactive: 6.54%,–
O=C(CSc1n[nH]c(=O)n1C1CC1)Nc1ccccc1,inactive: -0.623%,–
Cc1nnsc1NC(=O)OCc1ccc(Cl)cc1Cl,–,"inconclusive: 35.5 µM [inhibitor, single point]"
CCOC(=O)c1cccc(NS(=O)(=O)c2cc3c(cc2C)NC(=O)CO3)c1,–,"inconclusive: 8.91 µM [inhibitor, partial curve, poor fit]"
O=C(Oc1ccccc1C(=O)Nc1ccccc1)c1ccc(Br)c([N+](=O)[O-])c1,–,"inconclusive: 20 µM [inhibitor, single point]"
Cc1ccc(NC(=O)CN2C(=O)CC(C)Sc3ccccc32)c(C)c1 (stereo unspecified),inactive: 18.1%,–
COc1ccc(-c2cc3nc(NCC4CCCCC4)n(C)c(=O)c3s2)cc1OC,–,active: 10 µM
O=S(=O)(c1cccc(NC(=S)N2CCN(c3ccc(F)cc3)CC2)c1)C(F)F,–,"inconclusive: 22.4 µM [inhibitor, single point]"
COc1ccc(Cn2c(=O)sc3ccccc3c2=O)cc1,inactive: -22.1%,–
CC(CCc1ccccc1)NC(=O)CNC(=O)c1ccccc1Br (stereo unspecified),inactive: -2.6%,–
Cc1ccc(Nc2ccc(N3CCN(C(=O)c4ccc([N+](=O)[O-])cc4)CC3)nn2)cc1,–,"inconclusive: 2.82 µM [inhibitor, single point]"
Cc1cc(C(c2nnnn2Cc2ccccc2)N2CCOCC2)c(C)n1-c1ccc2c(c1)OCO2 (stereo unspecified),inactive: -7.43%,–
CC(C)(C)Nc1nc(Oc2ccc(=O)n(-c3ccccc3)n2)nc(N2CCOCC2)n1,–,"inconclusive: 0.562 µM [inhibitor, full curve, poor fit]"
Cc1cccc(COc2ccccc2/C=N/Nc2ccc([N+](=O)[O-])cc2)c1,–,"inconclusive: 35.5 µM [inhibitor, single point]"
Cc1ccc(S(=O)(=O)NCCc2csc(-c3cccc(F)c3)n2)cc1,–,"inconclusive: 12.6 µM [inhibitor, partial curve, poor fit]"
O=C(Nc1ccc(Br)cc1)c1cccnc1N1CCCCC1,–,"inconclusive: 31.6 µM [inhibitor, single point]"
O=C(Nc1ccc(F)c(Cl)c1)C1CC2CCC1C2 (stereo unspecified),–,"inconclusive: 31.6 µM [inhibitor, single point]"
CC1Cc2ccccc2N1C1=CC(=O)CCC1 (stereo unspecified),–,"inconclusive: 4.47 µM [inhibitor, single point]"
COCCNC(=O)/C(C#N)=C/C(C)=C/c1ccccc1,inactive: 2.24%,–
Cc1nn(C(C)C(=O)N2CCN(c3ccccn3)CC2)c(=O)c2cc3occc3n12 (stereo unspecified),–,"inconclusive: 3.55 µM [inhibitor, single point]"
Cc1ccccc1NC(=O)CSc1nc2cc3c(cc2cc1C)CCC3,inactive: 0.38%,–

# From PubChem BioAssay AID588855 (National Center for Advancing Translational Sciences (NCATS), 2011)
